Experimental data from the supplement of paper PMC11417369.
± gives the standard deviation of the averaged measurements. The list shows a part of the results.

test system: PfAP2-LT AP2 domain (GST-tagged); test: gcPBM binding intensity (ln(normalized median fluorescence intensity)); higher = stronger DNA binding
Method in brief: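 Each value is the highest Masliner-normalised natural-log median intensity across replicate spots of either orientation of a probe. The probes were primer-extended double-stranded 36-bp intergenic genomic sequences on an Agilent 4 × 180k array, alongside negative controls, exposed for 1 h to GST-tagged P. falciparum DNA-binding domains expressed in E. coli. Bound protein was picked up with Alexa488 anti-GST antibody and scanned at 488 nm.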

Row | Sequence | gcPBM binding intensity (ln)
1 | TTGGTGATATTTTTCTCACACATTTACCAGAGATGT [CACACA_site4684] | 9.06 ± 0.44
2 | CATAATAAGTATAACGTTAGTTACAAACAGCTTGTT [CACACA_negctrl_site937] | 9 ± 0.38
3 | TATTATTCAAAATTTGTGCACAAAATTAAAGGAACA | 8.74 ± 0.42
4 | TTTTTAAATAAATGTTTTTATTATATACATATCAAT [TGCATGCA_negctrl_site423] | 8.49 ± 0.51
5 | AAAATAATGTATATAGTGCAAATGAAAACGAAAAAA [GTGCAC_site9455] | 9.06 ± 0.45
6 | TATTTATATATTTATGCATGTTATAGGCAAAAATGT [TGCATGCA_site397] | 8.47 ± 0.39
7 | TATATTGATGATGATAGTACGTATGAATACAAAAAA [XGTACX_site4] | 8.79 ± 0.53
8 | GTAGATATTTATTGAGTGCATGTTATAAAGGGAAAA [GTGCAC_site9481] | 8.7 ± 0.55
9 | TTTTTTTTATGGAAACGTACATACATACATTAAAGA [XGTACX_site7401] | 8.33 ± 0.38
10 | TTTTTATTTTTTTACAGTACATAAAATAAATAAATA [XGTACX_site6596] | 7.93 ± 0.36
11 | TTCTTTAATACTTATTGTACAATATAATAATCACAA [XGTACX_site6364] | 8.6 ± 0.52
12 | TACTATATAAGTAAGGCATGCATGCCGATTTTTTTA [TGCATGCA_site100] | 8.8 ± 0.39
13 | AAAAAAAAAAAAATATGTACTTATTTTTATGTTAAA [XGTACX_site8802] | 8.26 ± 0.44
14 | TACTTAAAATATTTAACAAATAAATAAATAAATAAA [XGTACX_negctrl_site523] | 8.25 ± 0.55
15 | TGAAACCGTTACATGTGTACATATGTTACACATAAT [XGTACX_site7250] | 8.89 ± 0.32
16 | TTTCTTTTACATATTTGTACATATATAAATTTATAT [XGTACX_site1787] | 8.94 ± 0.38
17 | TCACATCTTATATACTGTACATTTCGAATATAAATT [XGTACX_site2508] | 8.81 ± 0.35
18 | ATATTTTTATTTTCTTTACACACCACATAATTTTTT [CACACA_site4060] | 9.07 ± 0.46
19 | ATTAGATATGTAAACTAAAATTATATTCATGATAAT [TGCATGCA_negctrl_site182] | 8.68 ± 0.42

Row | Sequence | gcPBM binding intensity (ln)
20 | TCTAACAACATGCGCACACACATGAATATTCATATT [CACACA_site1540] | 9.49 ± 0.32
21 | CATTATCATGTTTTTTGTACTCATAATAAAAAGCAG [XGTACX_site2056] | 8.32 ± 0.41
22 | CAAGGAACCGGACACACACACATAAATGTATTTATA [CACACA_site4574] | 9.54 ± 0.52
23 | TATATATAGAAACACACACACACCAAAGCGTAGCGC [CACACA_site62] | 9.79 ± 0.22
24 | ATTTACAAAAGGAAAGTGCAAACATGTGATTAAACA [CACACA_negctrl_site714] | 8.96 ± 0.45
25 | AAAAATGAATTATTTTGTACATATATATATATATAT [XGTACX_site3410] | 9.49 ± 0.19
26 | AATAATTGTTAAAGTTGTACTATACGTATATAAGAA [XGTACX_site1432] | 8.81 ± 0.54
27 | GCCAAAAGGATATGCACACACACACCCATATATATA [CACACA_site2198] | 9.94 ± 0.42
28 | ATTTTAATTACATATACACACAAAGGTTCATAACAA [CACACA_site9008] | 8.81 ± 0.37
29 | TTTTAAAAAAAATATAAAAAAAGAGGAGGGATGGTA [GTGCAC_negctrl_site35] | 8.52 ± 0.47
30 | AATTTTATTACTTTTACACACCTATATATTATTCAT [CACACA_site3273] | 9.19 ± 0.38
31 | ATTATTTTATTATAGTGTACTTTTTTAATCAAAGGA [XGTACX_site8921] | 8.44 ± 0.4
32 | TACTCATAATATTGATAATTAAAAAGATAAACTATT [XGTACX_negctrl_site299] | 8.38 ± 0.35
33 | TAATTTAAACAAAAAAGTACAAATTTCTTTTTATTA [XGTACX_site5244] | 8.12 ± 0.54
34 | TATGTTTTTACGTGTGTGCACTTTGTAGAGATAAGT | 9.06 ± 0.38
35 | AACTTATTTAAATTCACACATATATAAAATACTTAT [CACACA_site4394] | 8.64 ± 0.41
36 | ATAAAGATATGACACACACACATATTATAGATATAT [CACACA_site7434] | 9.71 ± 0.3
37 | ATCAATTTAATTTATTGTACTTGTTTGTTTTTTTAT [XGTACX_site7544] | 8.94 ± 0.38
38 | GATAACATAATATGTTGTACATAAAAATTTTTATCA [XGTACX_site1969] | 8.66 ± 0.41

Row | Sequence | gcPBM binding intensity (ln)
39 | ACATATGACTATAATACACACTTGTATTATTAATAT [CACACA_site6951] | 8.87 ± 0.38
40 | TTTTTTTTTTTTGATGCACACACCTGAACGAGTTAA [CACACA_site317] | 9.16 ± 0.45
41 | TATTTTTATATATGACGTACTCTACAATTATTAATG [XGTACX_site5818] | 8.67 ± 0.37
42 | AAAATATGTATGTAAAGTACTAATATACAAATTTTT [XGTACX_site5186] | 8.8 ± 0.4
43 | CATATACATCCACATACACACATACACCCATACACA [CACACA_site5038] | 9.66 ± 0.28
44 | TGAAAAGTAAAATACACACACATAATATAATTTATA [CACACA_site1989] | 9.47 ± 0.41
45 | AAAGGATATAGACACACACACACATATATATATATA [CACACA_site2200] | 10.3 ± 0.32
46 | GTTCAAAATATGAACACACACATATAGATTTATATA [CACACA_site7054] | 9.08 ± 0.41
47 | ATCATTTTTAAAGGAACACACAAAAAAAATTAGAAT [CACACA_site1370] | 8.78 ± 0.52
48 | ATTATTTTTTTTGTTACACACATGACTTATTTTTAT [CACACA_site3228] | 9.21 ± 0.44
49 | TAGTCGTTTTTTTAATGTACTCACGCATAATATAAT [XGTACX_site6499] | 8.97 ± 0.29
50 | TTAATTATAAGAAAAAGTACTCATTACATTATAGAA [XGTACX_site678] | 8.37 ± 0.47
51 | ATATAAATATTCCACACACACACAAAAAAAAAAAAA [CACACA_site7678] | 9.73 ± 0.24
52 | CATACATACCTATATACACACATATAAAATAATATA [CACACA_site7290] | 9.18 ± 0.4
53 | AGTATACAGATATATACACACATATTTATATTTATA [CACACA_site6394] | 9.04 ± 0.35
54 | TCTATATGTTGATTCACACATAAAGAATAAATAAAA [CACACA_site6017] | 8.65 ± 0.51
55 | TGTTATTATTTGTACACACACATATATATCCTTGTT [CACACA_site3616] | 9.71 ± 0.38
56 | GGCAACATTTGAAACACACACACATACAAACAAACA [CACACA_site3307] | 9.86 ± 0.47
57 | TATAATATATTATATACACACATTATGAAATCCACA [CACACA_site1330] | 8.96 ± 0.35
